Consider 48 compounds from PubChem BioAssay AID1963576 (National Center for Advancing Translational Sciences (NCATS), 2024).

Screen size: about 46,000 compounds; about 60 (0.1%) were called active. Inconclusive results (about 3%) are left out. The call rests on the fitted dose curve; in most records, active means well fitted inhibition curve with a large enough effect; inconclusive means small, poorly fitted or top-dose-only effect; inactive means no such curve, though single readings can be large or run the other way. The list shows a part of the results.

This assay can be described thus: Primary qHTS assay for Inhibitors of ovarian cancer metastasis using an organotypic tumor microenvironment (TME) model. Further: nearly all actives have a fitted effect of over 65% in size.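 On activity change, negative = inhibition: plate controls were DMSO wells for no effect and tomatine positive control wells for full effect.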 To be noted: SKOV3ip1-GFP adhesion/invasion on 3D omental model, fluorescence; series mostly up to 45.8 µM; activity change, negative = inhibition: at the top concentration. In outline: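 Primary human omental fibroblast/mesothelial 3D culture pre-formed 48 h. SKOV3ip1-GFP cells added with compounds (0.36-46 umol/L), incubated 2 h RT/16 h 37 C, fixed; GFP cells quantified at 488/509 nm.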
Turning to `CCc1cc(=O)oc2c3c(c(Cl)cc12)OCN(Cc1cccc(OC)c1)C3`, the compound was classed as inactive.

On to `CCN(C(=O)c1cc2c(s1)-c1c(C)cccc1OC2)c1ccccc1F`, for which the “activity change, negative = inhibition” value is inactive: 4.36%.

For `COc1ccc(CC(=O)N2CCc3cc(OC)c(OC)cc3C2COc2ccc(OC)cc2)cc1` (stereo not drawn), the call was inactive.

For the compound `CCC(=O)N1CCc2cc(Br)cc(S(=O)(=O)Nc3ccc(C)cc3C)c21`, the “activity change, negative = inhibition” value is inactive: -6.08%.

Consider `CC(C)Oc1ccc(CNC(=O)CCCN2C(=O)c3cccnc3Oc3ccc(Cl)cc32)cc1`, for which the “activity change, negative = inhibition” value is inactive: 15.5%.

`COc1ccc(-c2c(-c3ccc(O)cc3O)n[nH]c2C)cc1`: the “activity change, negative = inhibition” value was inactive: -8.23% [at 92.2 µM].

As for `CCOc1ccc(NS(=O)(=O)c2ccc(-c3cc(C)no3)s2)cc1`, the “activity change, negative = inhibition” value is inactive: 5.43%.

With `Cc1ccc(C)c(NC(=O)c2cnn(-c3cccc(F)c3)c2C2CCN(C(=O)OC(C)(C)C)CC2)c1`, the “activity change, negative = inhibition” value is inactive: 3.7%.

Consider `COc1ccc(-n2nc(C(=O)N(C)c3cc(C)ccc3C)c3c4ccccc4n(C)c3c2=O)cc1Cl`, for which the “activity change, negative = inhibition” value is inactive: 1.68%.

On to `O=C(Cn1cc(SCc2c(F)cccc2Cl)c2ccccc21)N1CCCCCC1`, for which the “activity change, negative = inhibition” value was inactive: 0.835%.

For the compound `CCC(=O)N1c2ccccc2CC1C(=O)NCCc1ccccc1C` (stereo not drawn), the outcome was inactive.

`CCN(c1ccccc1)S(=O)(=O)c1ccc(NC(=O)c2cc(=O)c3cc(C)cc(C)c3o2)cc1`: the “activity change, negative = inhibition” value was inactive: -4.63%.

Consider `Cc1c(Cl)cccc1NC(=O)c1cnc2sc(N3CCOCC3)nn2c1=O`, for which the “activity change, negative = inhibition” value was inactive: 1.52%.

For the compound `COc1ccc(OC)c(CCNC(=O)CCCn2c(=O)c3cccn3c3ccccc32)c1`, the “activity change, negative = inhibition” value was inactive: -5.37%.

As for `COc1ccc2oc(=O)cc(CN3CCN(Cc4ccccc4)CC3)c2c1`, the “activity change, negative = inhibition” value is inactive: 7.83%.

Take `O=C(Nc1ccc2nn(-c3ccccc3)nc2c1)c1cc2ccccc2o1`: the “activity change, negative = inhibition” value is inactive: -4.96%.

As to `O=C(CSc1cn(CC(=O)N2CCOCC2)c2ccccc12)Nc1ccccc1F`, the “activity change, negative = inhibition” value is inactive: 1.23%.

As for `Cc1cc2ccccc2n1CCNC(=O)c1cccc(Br)c1`, the call was inactive.

For `Cc1ccc(S(=O)(=O)Nc2ccc3c(c2)CCCN3C(=O)c2cccs2)cc1`, the “activity change, negative = inhibition” value was inactive: -27.1%.

As for `CCc1ccc(CNc2ncnc3c2nc2n3CCCC2)cc1`, the “activity change, negative = inhibition” value was inactive: 4.29%.

For `CCc1cccc(NC(=O)Cn2c(=O)ccc3cc(S(=O)(=O)N4CCC(C)CC4)ccc32)c1`, the “activity change, negative = inhibition” value was inactive: 28.6%.

In the case of `CCOc1ccccc1N1CC(c2nc3ccccc3n2CCOc2ccccc2)CC1=O` (stereo not drawn), the “activity change, negative = inhibition” value is inactive: 2.27%.

As to `Cc1cc(C)c2c(CC(=O)N3CCN(c4cccc(Cl)c4)CC3)coc2c1`, the “activity change, negative = inhibition” value is inactive: 6.77%.

Regarding `O=C(c1ccc2c(c1)N(Cc1ccc(Cl)cc1)C(=O)c1ccccc1S2=O)N1CCOCC1` (stereo not drawn), the “activity change, negative = inhibition” value was inactive: -1.06%.

For the compound `COc1ccc(C(CNC(=O)c2oc3ccc(Cl)cc3c2C)N2CCCCC2)cc1` (stereo not drawn), the “activity change, negative = inhibition” value was inactive: 3.49%.

Turning to `CC1CCc2nc3ncn(Cc4ccccc4C#N)c(=O)c3cc2C1` (stereo not drawn), the “activity change, negative = inhibition” value is inactive: 2.14%.

For `COc1cccc(N2CCN(C(=O)c3ccc(Cn4c(=O)[nH]c5cc(OC)c(OC)cc5c4=O)cc3)CC2)c1`, the “activity change, negative = inhibition” value was inactive: -10.5%.

Regarding `COc1cccc(CSc2nc3cc(C(=O)NC4CCCC4)ccc3c(=O)n2Cc2ccccc2)c1`, the “activity change, negative = inhibition” value was inactive: -6.77%.

On to `Nc1nnc2c(n1)[nH]c1ccccc12`, for which the compound was classed as inactive.

As for `CCCCNc1nc2c(c(=O)n(Cc3ccc(Cl)cc3)c(=O)n2C)n1C`, the “activity change, negative = inhibition” value was inactive: 0.79%.

Regarding `COC(=O)c1ccc(CSc2nc3c([nH]c4ccccc43)c(=O)n2-c2ccc(Cl)cc2)o1`, the outcome was inactive.

Take `O=C1CC(c2nc3ccccc3[nH]2)CN1c1cccc(Cl)c1` (stereo not drawn): the outcome was inactive.

For the compound `CCCC(=O)N(c1ccc2oc3c(c2c1)CCCC3)S(=O)(=O)c1cc(C)ccc1C`, the “activity change, negative = inhibition” value is inactive: 5.24%.

Turning to `Cc1cc(Cl)ccc1NC(=O)c1cc(S(=O)(=O)N2CCOCC2)cn1C`, the call was inactive.

Turning to `COc1ccc(CN2CCN(Cc3cc(=O)oc4cc(C)ccc34)CC2)c(OC)c1OC`, the compound was called inactive.

Take `COc1ccc(-n2cc(C(=O)NCc3ccccc3)c3ccccc3c2=O)cc1`: the “activity change, negative = inhibition” value is inactive: -2.3%.

Take `O=C(CSc1nc2ccccc2n1Cc1ccccc1)N1CCN(c2ccc(F)cc2)CC1`: the compound was classed as inactive.

In the case of `CCc1ccc(-c2nc3ccc(Br)cc3c(C(=O)O)c2C)s1`, the “activity change, negative = inhibition” value is inactive: -11.9%.

For `Cc1ccccc1CNC(=O)C1CCN(c2nnc(C)c3c(C)n(-c4ccccc4)nc23)CC1`, the “activity change, negative = inhibition” value was inactive: 7.51%.

Regarding `O=C(Cn1c(=O)n(Cc2ccc3c(c2)OCO3)c(=O)c2oc3ccccc3c21)Nc1ccccc1`, the “activity change, negative = inhibition” value is inactive: 8%.

As to `CSc1ccc(CCNC(=O)C2CCN(c3nc4ccccc4nc3C(F)(F)F)CC2)cc1`, the compound was classed as inactive.

Turning to `CN1C(=O)C2(c3ccccc31)N(c1ccccc1)C(=O)CS2(=O)=O` (stereo not drawn), the compound was called inactive.

On to `COc1cc(-c2noc(-c3cc4cc(F)ccc4oc3=O)n2)cc(OC)c1OC`, for which the “activity change, negative = inhibition” value is inactive: 11.4%.

Regarding `CCc1nnc(NC(=O)c2cc(=O)c3cc(C)c(C)cc3o2)s1`, the “activity change, negative = inhibition” value was inactive: -1.67%.

Turning to `COC(=O)c1ccc(NC(=O)c2c(NCc3ccc(C)o3)sc3c2CCCC3)cc1`, the “activity change, negative = inhibition” value is inactive: 7.31%.

Consider `CCn1c(C(=O)NCc2cccc(Br)c2)cc2oc3ccccc3c21`, for which the “activity change, negative = inhibition” value is inactive: 1.22%.

With `Cc1cc(C)c2oc(C(=O)Nc3sc4c(c3C(=O)NCc3ccco3)CCC4)cc(=O)c2c1`, the “activity change, negative = inhibition” value is inactive: -0.794%.

As to `Cc1ccc(C)c(CN2C(=O)c3ccccc3S(=O)(=O)c3ccc(C(=O)Nc4ccccc4C(F)(F)F)cc32)c1`, the call was inactive.
